Laboratory results reported in paper PMC12136788.
The list shows a part of the results.

B1: chr9:14812383:14812384:-_ENSMUSG00000031934_ENSMUST00000164273|mus_mus|mus_mus_mus_hu_True|78_98 (ssRNA)
RNA: GGGAGUUCUACAGUCCGACGAUCAUAGCCCAGGUAGAUACAUGCCAACAGUAUAAUCACAAAUGUCAGCAGGCGGCAGCUAAUGUACUUGAUGAUUAAAUUAUUAGAAUUUUUCUUUGUCUUCAAGUACUGCUCCACAAUUGGCAACAGAGGAUUGAGCAUCA
B2: chr7:7679991:7679992:-_ENSG00000106399_ENST00000396682|hu_hu|hu_hu_hu_mus_False|8_88 (ssRNA)
RNA: GGGAGUUCUACAGUCCGACGAUCUGGGAUGAAUCUUUUCCAGCUUCCCUACGAAGCACACGGGCCGGUCGAUAUACUGUGGUAACAUGCUGGCGUUGACGCGCGCUUUGGGGAGCUGCAUUAUGUCCACCAUGAUUCUGCCGCCAACAGAGGAUUGAGCAUCA
B3: chr4:48853911:48853912:+_ENSG00000109180_ENST00000264312|hu_mus|motif|central (ssRNA)
RNA: GGGAGUUCUACAGUCCGACGAUCCUCGUUCAUAGAAGCACUAAAUGGAAUUGGCUCAUAACGAGGAAGCGCCUCCUUUUCGGUGUUGUCUGCUGCUGGAGAUGUCCCGAAAGAGGACUGACCACUCACAUUUGAGUCAAAUUUCAACAGAGGAUUGAGCAUCA
B4: chr17:87835246:87835247:-_ENSMUSG00000036438_ENSMUST00000040440|mus_mus|FALSE|FALSE (ssRNA)
RNA: GGGAGUUCUACAGUCCGACGAUCGGGACCUCAUCACUGUCCCCAGCUCCUUUGUUGUUAUUGUCCCAUCCCCGUCCUUGUCAAAUAGUGAGAAAGCUUCUUUGAACUCUGCAAUCUGCUCUUCAGUCAGUUGGUCAGCCAUGCCAACAGAGGAUUGAGCAUCA
B5: chr4:115894766:115894767:+_ENSMUSG00000028698_ENSMUST00000030464|mus_hu|mus_mus_mus_hu_True|28_108 (ssRNA)
RNA: GGGAGUUCUACAGUCCGACGAUCUUCACACGGAAAUUGUACUUCGGGUUUUCCAACGGCCAGUACCAGUCCGGCCAAACUACCCGAACAGGGUCCUCCCCCUCUCUUCUCUCCUCCACAACAAAAUGCCCCCGAACUUUCAAGCAACAGAGGAUUGAGCAUCA
B6: chr2:49629323:49629324:+_ENSMUSG00000026764_ENSMUST00000028102|mus_mus|motif|central (ssRNA)
RNA: GGGAGUUCUACAGUCCGACGAUCUCAAAUGCAGUCGGCAUUAUAAGCCCCAACCAUAACCACUAUCUUCAAUAACAUUCGGAUCAUCACCCCAACGGCUGGCAGGCAGAGGUUAUUUGUCUAAACCAUCUGGCUGCACUCCUACAACAGAGGAUUGAGCAUCA
B7: 69587733_69587853_1851_3pUTR_ENSMUSG00000042133_ENSMUST00000090858|mouse|control|control (ssRNA)
RNA: GGGAGUUCUACAGUCCGACGAUCUUGUAACUGUGUUUACUUUUAGUCAGAUCCCGUUCUCUACUCCUGGACUGUGCACGUCUAUCCUUUUCUUUACUUUUGCUAUGAUCAUGUUCAUUACUUUUUGAUUCUACCUGUUUGGAGCAACAGAGGAUUGAGCAUCA
B8: chr7:141445308:141445309:+_ENSG00000106028_ENST00000265304|hu_hu|hu_hu_hu_mus_False|98_98 (ssRNA)
RNA: GGGAGUUCUACAGUCCGACGAUCUAUGAUUGUUGUUGCUUGUCGCCUCACAUUGUUUUUAUCCAUGUACUCGCCAUAGUCCACUUUCCCUUCCACAAAUAUACGAGCCCCCUUUUUCACAUACUGAUAUGCCACAUCUCUGAGCAACAGAGGAUUGAGCAUCA
B9: chr18:90710673:90710674:+_ENSMUSG00000024614_ENSMUST00000025515|mus_hu|FALSE|FALSE (ssRNA)
RNA: GGGAGUUCUACAGUCCGACGAUCGUUGCCUAAUAUAAAUUCUAAACUUAGCUAAAAUGAAGGCCUCAAAAAUAAUUUAUCUACAAUAAACAUACCAAACUGUUACUUUAAAAAAAAGAGUUUUUAGACAUUGCUUUGGAAAGACAACAGAGGAUUGAGCAUCA
B10: chr10:75239141:75239142:-_ENSG00000107758_ENST00000394829|hu_hu|FALSE|FALSE (ssRNA)
RNA: GGGAGUUCUACAGUCCGACGAUCUACUUCUAUCAUGGUUUUCUCUCUCCGAAGGAUGGCAGCACCCUCAUUGAUAAUUCUAAGCGCAAUUUCUUCAUCUACUCGACCUUCUUUCACCAAGUGGUUCUUCAGAACAUCAACCCUCAACAGAGGAUUGAGCAUCA
B11: chr2:181380236:181380237:+_ENSMUSG00000002455_ENSMUST00000002529|mus_hu|FALSE|FALSE (ssRNA)
RNA: GGGAGUUCUACAGUCCGACGAUCGCCAUGGUUCUUCUCGAAGUACGCGGCGCGCAGCCACACACUCUUCUUGCUGGGGAACACCUGCAGGGCGUAGGCGUAGAUGGCUCGUGCACACUCCAGGGCAUUGUGGGCUACACAACUCAACAGAGGAUUGAGCAUCA
B12: 106645464_106645835_1224_ncRNA_ENSMUSG00000020719_ENSMUST00000133426|mouse|control|control (ssRNA)
RNA: GGGAGUUCUACAGUCCGACGAUCAUGGCAGGCCACCCAUCUCUCCUCAUUUUUCUGGUAAGUUCAUCACAUCUUCUUUUGGUUUCAACAAAAACAAUAGUUUUAUUCUCCUUCUCACUCAUGAUUUCUUCCAUCAGACGAAUACAACAGAGGAUUGAGCAUCA
B13: chr8:38095079:38095080:+_ENSG00000085788_ENST00000520272|hu_hu|FALSE|FALSE (ssRNA)
RNA: GGGAGUUCUACAGUCCGACGAUCAGAUUCCAGUUUCUUUUUCCAUUCAUCCAAAGUUACAGCAAGCAUGUAAGUUUCCUCUAAAACUUGGCUGAAGCUCUCCGAGUAGGGAACAUACUUAUUGUCUUUGUCCCCCUUGUAAAACAACAGAGGAUUGAGCAUCA
B14: chr2:48026839:48026840:+_ENSG00000116062_ENST00000540021|hu_hu|hu_hu_hu_mus_False|18_78 (ssRNA)
RNA: GGGAGUUCUACAGUCCGACGAUCAUAGUGAGCCACUAGCGUCCUAAAUCUGGAACAAUGGCGAUCAUCCGAAAACUGGCCGAUGAAAAACUUGCCCAGUGAAGUGUCCACAAAGCACACACCAUAUACACGAGUGUGACCAGACAACAGAGGAUUGAGCAUCA
B15: 77921596_77922756_1631_CDS_ENSG00000167291_ENST00000310924|human|control|control (ssRNA)
RNA: GGGAGUUCUACAGUCCGACGAUCAGGGUUGUACACGGCGUAGUUCAGCAGGAUCCUCCUCAUGCUCUCCACAUUGGGAUUGUCUUCCCCCCGGAAGAACUGGUUGUUCCGAUCUGUCCGGACCACGUCUUUGUCCACAGUGAACAACAGAGGAUUGAGCAUCA
B16: chr2:127988141:127988142:+_ENSMUSG00000027381_ENSMUST00000110341|mus_mus|motif|central (ssRNA)
RNA: GGGAGUUCUACAGUCCGACGAUCUGUCAAAAUUCAUCAGUGCAAAACGUAAAGGAAGCCAGGGAAACUGCAAUACAAAUGCGGCAUACGCUGGGUUCUGACAUUAGUGAUGGGGACUAUACAGAGAUCAGUGCUGUUCACUAACAACAGAGGAUUGAGCAUCA
B17: chrX:98510588:98510589:+_ENSMUSG00000031302_ENSMUST00000065858|mus_hu|FALSE|FALSE (ssRNA)
RNA: GGGAGUUCUACAGUCCGACGAUCAUGUGACAACGUGAGGAGGCUGACGCAGGAUGCACCAAUGCCCGAGCCAAAGACAGUGAUCCGGCGGGGGUCUCCCCCGAAGAAGGCAAUAUUCUCGCUCACCCAGCGGAGGGCCUGGAUCAACAGAGGAUUGAGCAUCA
B18: chr11:87793471:87793472:-_ENSMUSG00000020483_ENSMUST00000020775|mus_mus|mus_mus_mus_hu_False|38_58 (ssRNA)
RNA: GGGAGUUCUACAGUCCGACGAUCUGGACUUGAAAAUAAAAGAAUAAGCUGGAUCCCCCACCCCCCCACAUUGUCAACCCUAUGCGAGAGUUUUGAAUGAUUCAUAAGAAAAUCAGCAGCUCAAACGGCAAUGACCACCCCACCCAACAGAGGAUUGAGCAUCA
B19: chr1:163117127:163117128:-_ENSG00000143248_ENST00000313961|hu_mus|hu_hu_hu_mus_False|48_108 (ssRNA)
RNA: GGGAGUUCUACAGUCCGACGAUCUGCGGGUUAUUAUGUAACUCAACUCACAGGGCAACUUUUGGAAGCCUGACCAGAUGACUACUUGAUUAACUCCUUAUAAAAUUCAGAGCGCACAAAGCGGGGCAGAGAAUCCUUCUCCAUCAACAGAGGAUUGAGCAUCA
B20: chr14:63848828:63848829:-_ENSG00000154001_ENST00000337537|hu_mus|FALSE|FALSE (ssRNA)
RNA: GGGAGUUCUACAGUCCGACGAUCACGCUGACGAUCUGACUUGUAUGUGGCUGUCAGCUCAUCAAACAUAGUGCUGUUCAUUUCCAUAAAUGCCUUCAACACGUUGUACACCAAUGCCACAAUGGCCGGAUUCCAAUGCUCUUUCAACAGAGGAUUGAGCAUCA
B21: chr2:5814250:5814251:-_ENSMUSG00000025816_ENSMUST00000102981|mus_hu|mus_mus_mus_hu_True|68_78 (ssRNA)
RNA: GGGAGUUCUACAGUCCGACGAUCUUCCUUUCCGGUUUCUGAAUUUCUGGUAGAACUGCACAGAAAGGUUUAAUAACUUCUAAAAAUUUGAUGCCCAUGGCUGCUGCUGGGGAGGCCCAGGGGGAAACCGCGGCCUCGGCGCUGCAACAGAGGAUUGAGCAUCA
B22: chrX:147030916:147030917:+_ENSG00000102081_ENST00000218200|hu_hu|FALSE|FALSE (ssRNA)
RNA: GGGAGUUCUACAGUCCGACGAUCUAUAAUAUUCCUACCUGCCAAGAUAUAAAAAAGGCACAGAUCAUACAACUUUUUUUGCUAAUGAAAAUGACAAAUGUCACAUCACACACAUUUCAGGGUCCACUAAAAUACUGGAAAAGUCAACAGAGGAUUGAGCAUCA

Target: T1, UNK ZnF1-3 (human, UniProt Q9C0B0 31-174)
T1 sequence: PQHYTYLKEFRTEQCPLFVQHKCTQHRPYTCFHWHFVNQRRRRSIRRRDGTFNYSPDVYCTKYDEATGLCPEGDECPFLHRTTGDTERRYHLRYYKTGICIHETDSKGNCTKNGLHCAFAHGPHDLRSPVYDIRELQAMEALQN
Experiment: nsRBNS (natural sequence RNA bind-n-seq); RBNS binding buffer (assumed for nsRBNS): 25 mM Tris pH 7.5, 150 mM KCl, 3 mM MgCl2, 0.01% Triton X-100, 500 ug/ml BSA, 20 U/ml SUPERase-In, 4 C; UNK is unkempt and MSI1 is Musashi-1; names of the RNAs are library labels; protein concentration not given here; high values mean tight binding

Binder | binding signal
B1 | 1.58 enrichment R
B2 | 0.484 enrichment R
B3 | 0.982 enrichment R
B4 | 0.982 enrichment R
B5 | 1.05 enrichment R
B6 | 1.09 enrichment R
B7 | 0.206 enrichment R
B8 | 0.619 enrichment R
B9 | 2.09 enrichment R
B10 | 0.827 enrichment R
B11 | 0.921 enrichment R
B12 | 0.777 enrichment R
B13 | 0.809 enrichment R
B14 | 1.36 enrichment R
B15 | 0.492 enrichment R
B16 | 1.24 enrichment R
B17 | 1.29 enrichment R
B18 | 2.07 enrichment R
B19 | 1.18 enrichment R
B20 | 0.644 enrichment R
B21 | 1.9 enrichment R
B22 | 1.44 enrichment R
